# According to PubChem BioAssay AID1454 (National Center for Advancing Translational Sciences (NCATS), 2008):
# Out of some 130,000 compounds screened, about 550 (0.42%) were called active. Inconclusive results, whose numbers are uncertain, are shown with a selection of clear calls. Calls follow the shape of the dose curve; as a rule, active = well fitted inhibition curve with a large enough effect; inconclusive = small, poorly fitted or top-dose-only effect, or effect the other way; inactive = flat fitted curve, though single readings scatter. Potencies of inconclusive entries are left out as doubtful fits.
# Assay: qHTS Assay for Inhibitors of the ERK Signaling Pathway using a Homogeneous Screening Assay; Stimulation with EGF; also: nearly all actives have a fitted effect of over 55% in size;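 as to activity change, negative = inhibition: plate controls were stimulated vehicle wells for no effect and unstimulated vehicle basal for full effect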
# Settings: HEK293-V1b, EGF-stimulated phospho-ERK AlphaScreen; activity change, negative = inhibition: at the top concentration
# How it was run: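 Cell line HEK293 (stable V1b), low serum overnight. Pretreatment: compound 30 min, 37C. EGF 25 nM, 5 min. Detection: SureFire AlphaScreen, 5 h RT. AC50 via standard Hill equation.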
# Potency is read from the fitted curve at half-maximal effect; tags tell the direction and shape of the fitted curve.
Compound,Potency,"activity change, negative = inhibition"
CCOC(=O)C(C)n1nc(C)c2sc3ccccc3c2c1=O (centres undefined),"inconclusive [inhibitor, single point]",
COc1ccccc1NC(=S)N(Cc1ccco1)Cc1cc2ccc(C)c(C)c2[nH]c1=O,"inconclusive [inhibitor, full curve, poor fit]",
COc1ccc(C(=O)/C=C/C(=O)N(CC(=O)NC2CCCCC2)Cc2ccccc2)c(O)c1,"inconclusive [inhibitor, single point]",
CC(=O)/C=C/c1ccccc1O,,inactive: -3.02%
CN1/C(=C/C(=S)NC(=O)C2CCC2)C(C)(C)c2ccccc21,"inconclusive [inhibitor, partial curve]",
CC1Cc2cc(/C=C3/SC(=S)N(C)C3=O)ccc2O1 (centres undefined),"inconclusive [inhibitor, partial curve]",
O=C1c2ccccc2C2=Nc3ccccc3SC(c3cccc(F)c3)C12 (centres undefined),"inconclusive [inhibitor, partial curve]",
Nc1nc(F)cc(NCc2ccccc2)n1,,inactive: -5%
CCn1c(-c2ccccc2)csc1=Nc1ccc(O)cc1,"inconclusive [inhibitor, single point]",
O=C1/C(=C\c2cccnc2)CN(Cc2ccccc2)C/C1=C\c1cccnc1,"inconclusive [inhibitor, partial curve]",
Cc1ccc(-c2cc(C(=O)O)c3cc(Br)ccc3n2)o1,,inactive: 10.2%
CN1CC(=O)N2[C@H](c3ccc4c(c3)OCO4)c3[nH]c4ccccc4c3C[C@@H]2C1=O,"inconclusive [activator, single point]",
Cc1cc(=O)c2ccccc2n1Cc1ccccc1,"inconclusive [inhibitor, full curve]",
COc1ccc(Oc2ccc(C(F)(F)F)cc2NC(=O)c2ccc(C)cc2)cc1,"inconclusive [activator, partial curve, poor fit]",
CCCN(CCC)c1ccc(/C=C/c2ccc3cc(OCC)ccc3n2)cc1,"inconclusive [activator, partial curve]",
BrC(=C\c1ccccc1)/C=N/N1CCN(c2ccccc2)CC1,"inconclusive [inhibitor, single point]",
COCCn1c(=O)c(-c2ccc(OC)cc2)nc2cnc(N3CCNCC3)nc21,"inconclusive [activator, partial curve]",
N#Cc1c(-c2ccco2)ccn(Cc2ccc(F)cc2)c1=O,"inconclusive [inhibitor, single point]",
COc1ccc(NC(=O)/C(Cl)=C(/Cl)S(=O)Cc2ccc(Cl)cc2)cn1 (centres undefined),"inconclusive [inhibitor, single point]",
O=C(CCc1ccc(Oc2cc([N+](=O)[O-])cc([N+](=O)[O-])c2)cc1)N1CCCCCC1,"inconclusive [inhibitor, single point]",
CC1CCCC(NC(=O)CNCc2ccccc2F)C1C (centres undefined),,inactive: -17.6%
CC1(C)C=Cc2c(cc3occ(-c4ccc5c(c4)OCO5)c(=O)c3c2O)O1,,inactive: 12.4%

Compound,Potency,"activity change, negative = inhibition"
CCCCCCCCCCCCC/C=C/[C@@H](O)[C@H](CO)NCCCCCCCC,,inactive: -13.5%
S=c1[nH]nc(-c2cccs2)n1/N=C/c1cn(-c2ccccc2)nc1-c1ccccc1,"inconclusive [inhibitor, partial curve]",
COc1ccc2c(c1)OC/C(=C/c1ccc(OC)c(OC)c1)C2=O,"inconclusive [inhibitor, partial curve]",
O=C(O)CCC(=O)OC[C@@H](NC(=O)C(Cl)Cl)C(O)c1ccc([N+](=O)[O-])cc1 (some centres undefined),,inactive: 10.6%
O=C(N/N=C/c1ccco1)c1cc(-c2ccc(Br)s2)[nH]n1,"inconclusive [inhibitor, single point]",
Cn1cccc1/C=C1\SC(=S)N(NC(=O)c2ccccc2)C1=O,"inconclusive [inhibitor, single point]",
CCN(CC)c1ncnc2scc(C3COc4ccccc4O3)c12 (centres undefined),,inactive: 0.437%
Cn1cc(/C=N/Nc2ccccc2)c2ccccc21,"inconclusive [inhibitor, single point]",
OCc1nnn(-c2ccccc2)c1CO,,inactive: -15.1% [at 57.5 µM]
O=C(Cc1ccccc1F)Nc1ccc(SC(F)F)cc1,"inconclusive [inhibitor, single point]",
CCCCCCNC(=O)c1cccc(-c2ccc(C)c3ccccc23)n1,"inconclusive [activator, full curve, poor fit]",
CCN(CC)S(=O)(=O)c1cc(NC(=O)Cn2ncc(Cl)c(Cl)c2=O)ccc1C,active: 20 µM,
O=C(O)COc1ccccc1/C=N/NC(=O)COc1ccc(-c2ccccc2)cc1,"inconclusive [inhibitor, single point]",
COc1ccc(C(=O)/C=C/C(=O)N(CC(=O)NC2CCCCC2)Cc2ccccc2OC)c(O)c1,"inconclusive [inhibitor, single point]",
COc1ccc(C(C#N)=C2C=CC(=NO)C=C2)cc1,"inconclusive [inhibitor, partial curve]",
O=[N+]([O-])c1ccc(N2CCCC2)nc1N1CCCC1,"inconclusive [inhibitor, partial curve, poor fit]",
CCOC(=O)c1csc(NC(=O)COc2ccc(Cl)cc2Cl)n1,"inconclusive [inhibitor, single point]",
Cc1ccc(C2CC(=O)Nc3c2ccc2ccccc32)cc1[N+](=O)[O-] (centres undefined),"inconclusive [inhibitor, single point]",
O=C(Nc1ccc(Cl)c(S(=O)(=O)N2CCOCC2)c1)c1ccc(OCC2CCCO2)cc1 (centres undefined),active: 14.1 µM,
Cn1cccc1C(=O)N1CCC2(CCN(C(=O)Nc3cccc(F)c3)CC2)CC1,,inactive: -1.52%
NC(=S)n1[nH]c(-c2ccc([N+](=O)[O-])cc2)c(N=Nc2ccc(Cl)cc2)c1=O,"inconclusive [inhibitor, full curve, poor fit]",
CCOc1ccc(CCNC(=O)c2ccc3nc(N4CCOCC4)sc3c2)cc1OCC,"inconclusive [inhibitor, partial curve]",
